Measured values reported in patent US20210107998A1 (Boehringer Ingelheim, published 2021).

Legend:
Assay in all cases: cell-based or functional assay
[1] = target: T1, Recombinant human BAFF trimer (Boehringer Ingelheim Pharmaceuticals, Inc.) (human, UniProt Q9Y275 partial chain, limits assumed)
[2] = target: membrane-bound human BAFF on fixed CHO-K1 cells (human, UniProt Q9Y275 1-285)
[3] = target: T1, Recombinant human BAFF trimer …; remark: listed apart in the source
[4] = target: Recombinant human BAFF 60mer (Boehringer Ingelheim Pharmaceuticals, Inc.) (human, UniProt Q9Y275 partial chain, limits assumed)
[5] = target: Recombinant cynomolgus BAFF trimer (Boehringer Ingelheim Pharmaceuticals, Inc.) (cynomolgus, UniProt A0A2K5V2X4 134-285)

B1: Control Fusion Protein Antagonist 2 (non-antibody BAFF selective antagonist) (BAFF (2)) (Fc fusion)
chain: GCKWDLLIKQWVCDPLGSGSATGGSGSTASSGSGSATHMLPGCKWDLLIKQWVCDPLGGGGGV[letters of human IgG1 Fc not shown]
IC50 Geomean, NFkB luciferase reporter, human TACI-CHO cells [1]: 829 pM
IC90 Geomean, NFkB luciferase reporter, human TACI-CHO cells [1]: 1940 pM
IC50, NFkB luciferase reporter, human BAFFR-CHO cells stimulated with fixed human BAFF CHO-K1 cells [2]: 581 pM
IC90, NFkB luciferase reporter, human BAFFR-CHO cells stimulated with fixed human BAFF CHO-K1 cells [2]: 3680 pM
IC50, NFkB luciferase reporter, human BAFFR-CHO cells [3]: 173 pM
IC90, NFkB luciferase reporter, human BAFFR-CHO cells [3]: 914 pM
IC50, NFkB luciferase reporter, human BAFFR-CHO cells [4]: 43 pM
IC90, NFkB luciferase reporter, human BAFFR-CHO cells [4]: 107 pM
IC50 Geomean, NFkB luciferase reporter, human BAFFR-CHO cells [5]: 602 pM
IC90 Geomean, NFkB luciferase reporter, human BAFFR-CHO cells [5]: 1090 pM
